Experimental findings from a collection of fitness landscapes (doi:10.1126/science.1257360) are described below.

The chains are these.
B1: PhoQ; a variant is named by its letters at X, in order, P23837 (parent)
chain: MKKLLRLFFPLSLRVRFLLATAAVVLVLSLAYGMVALIGYSVSFDKTTFRLLRGESNLFYTLAKWENNKLHVELPENIDKQSPTMTLIYDENGQLLWAQRDVPWLMKMIQPDWLKSNGFHEIEADVNDTSLLLSGDHSIQQQLQEVREDDDDAEMTHSVAVNVYPATSRMPKLTIVVVDTIPVELKSSYMVWSWFIYVLSANLLLVIPLLWVAAWWSLRPIEALAKEVRELEEHNRELLNPATTRELTSLVRNLNRLLKSERERYDKYRTTLTDLTHSLKTPLXXLQXXLRSLRSEKMSVSDAEPVMLEQISRISQQIGYYLHRASMRGGTLLSRELHPVAPLLDNLTSALNKVYQRKGVNISLDISPEISFVGEQNDFVEVMGNVLDNACKYCLEFVEISARQTDEHLYIVVEDDGPGIPLSKREVIFDRGQRVDTLRPGQGVGLAVAREITEQYEGKIVAGESMLGGARMEVIFGRQHSAPKDE

This is one part of the list.

This test covers variants of B1. The test is described as follows: enrichment ratio after two sorts for PhoP signalling (ratio (wild type AVST 3.29)); higher = more functional. Conditions: with PhoP (E. coli).
Regarding LFKW, the enrichment ratio is at most 0.25.

For the variant MSEW, the enrichment ratio was at most 0.25.

On to FKLT, for which the enrichment ratio was at most 0.25.

With NFFC, the enrichment ratio is at most 0.25.

FKYN: the enrichment ratio was at most 0.25.

Consider VYWS, for which the enrichment ratio is at most 0.25.

Regarding IIYT, the enrichment ratio is at most 0.25.

For IIST, the enrichment ratio was at most 0.25.

HEDW: the enrichment ratio was at most 0.25.

Take TKRG: the enrichment ratio was at most 0.25.

PGSL: the enrichment ratio is at most 0.25.

Turning to MTAS, the enrichment ratio worked out at 12.

With IELR, the enrichment ratio was at most 0.25.

On to LYHN, for which the enrichment ratio was at most 0.25.

Turning to QVWL, the enrichment ratio came out at 1.05.

On to WKYI, for which the enrichment ratio was at most 0.25.

As to LRTL, the enrichment ratio was at most 0.25.

For the variant IVNL, the enrichment ratio is at most 0.25.

For SVWG, the enrichment ratio is at most 0.25.

Regarding PKIW, the enrichment ratio is at most 0.25.

On to NPCC, for which the enrichment ratio is at most 0.25.

Consider AWQY, for which the enrichment ratio is at most 0.25.

For YPYV, the enrichment ratio is at most 0.25.

For GATS, the enrichment ratio was at most 0.25.

For TDVS, the enrichment ratio turned out to be 3.07.

As for ARCK, the enrichment ratio was at most 0.25.

Consider VRQF, for which the enrichment ratio was at most 0.25.

On to SHWV, for which the enrichment ratio was at most 0.25.

With LKAI, the enrichment ratio is at most 0.25.

Regarding RFED, the enrichment ratio was at most 0.25.

With PFQE, the enrichment ratio was at most 0.25.

With YKTN, the enrichment ratio is at most 0.25.

Turning to QMRF, the enrichment ratio was at most 0.25.

Consider AAFM, for which the enrichment ratio was at most 0.25.

As for RGAD, the enrichment ratio is at most 0.25.

For RFEE, the enrichment ratio was at most 0.25.

As to YAKV, the enrichment ratio was at most 0.25.

For the variant YKFT, the enrichment ratio was at most 0.25.

With HIAN, the enrichment ratio is at most 0.25.

With HRPS, the enrichment ratio is at most 0.25.

For LYCW, the enrichment ratio is at most 0.25.

As for EMED, the enrichment ratio was at most 0.25.

Take YINP: the enrichment ratio is at most 0.25.

For FAFF, the enrichment ratio was at most 0.25.

Turning to HACQ, the enrichment ratio is at most 0.25.

EDWY: the enrichment ratio is at most 0.25.

On to WIYP, for which the enrichment ratio was at most 0.25.

With KGQL, the enrichment ratio is at most 0.25.

Take WRLS: the enrichment ratio is at most 0.25.

For KNGI, the enrichment ratio was at most 0.25.

Turning to FPAF, the enrichment ratio was at most 0.25.

Take VVGW: the enrichment ratio is at most 0.25.

Turning to KVSS, the enrichment ratio is at most 0.25.

For APEF, the enrichment ratio was at most 0.25.

In the case of IWVV, the enrichment ratio is at most 0.25.

On to HQRP, for which the enrichment ratio is at most 0.25.

With VARS, the enrichment ratio is at most 0.25.

Consider DTIT, for which the enrichment ratio was at most 0.25.

Turning to FPGL, the enrichment ratio is at most 0.25.

As for RVDP, the enrichment ratio was at most 0.25.

Turning to PHND, the enrichment ratio is at most 0.25.

With RIWE, the enrichment ratio was at most 0.25.

With SPAL, the enrichment ratio was at most 0.25.

In the case of YYHQ, the enrichment ratio is at most 0.25.

For VLMY, the enrichment ratio was at most 0.25.

Consider LDTH, for which the enrichment ratio is at most 0.25.

With TEDM, the enrichment ratio is at most 0.25.

For GPIE, the enrichment ratio is at most 0.25.

As to KSTF, the enrichment ratio was at most 0.25.

Turning to NCAS, the enrichment ratio is at most 0.25.

For IYAW, the enrichment ratio is at most 0.25.

As to HVFY, the enrichment ratio is at most 0.25.

Turning to EFCS, the enrichment ratio was at most 0.25.

Turning to DIMP, the enrichment ratio was at most 0.25.

Regarding FHTC, the enrichment ratio is at most 0.25.

Consider YKDP, for which the enrichment ratio is at most 0.25.

Take YAWV: the enrichment ratio is at most 0.25.

With DKIY, the enrichment ratio was at most 0.25.

Take QTKI: the enrichment ratio was at most 0.25.

With YFMW, the enrichment ratio was at most 0.25.

On to AKPT, for which the enrichment ratio was at most 0.25.

AKNR: the enrichment ratio is at most 0.25.

Turning to VEDP, the enrichment ratio was at most 0.25.

Consider IYHI, for which the enrichment ratio was at most 0.25.

With MQDY, the enrichment ratio was at most 0.25.

IEVQ: the enrichment ratio is at most 0.25.

On to TRAW, for which the enrichment ratio is at most 0.25.

For the variant VHPY, the enrichment ratio is at most 0.25.

For FAVV, the enrichment ratio is at most 0.25.

As to MMAG, the enrichment ratio came out at 5.66.

On to LYHI, for which the enrichment ratio is at most 0.25.

As to MCQK, the enrichment ratio is at most 0.25.

In the case of PFDL, the enrichment ratio was at most 0.25.

For the variant RKFN, the enrichment ratio is at most 0.25.

Regarding AFFH, the enrichment ratio was at most 0.25.

Regarding SQDH, the enrichment ratio was at most 0.25.

Consider SHVS, for which the enrichment ratio is at most 0.25.

On to TGDW, for which the enrichment ratio was at most 0.25.

In the case of SWQE, the enrichment ratio was at most 0.25.

Turning to QSQG, the enrichment ratio is at most 0.25.

As for MYAH, the enrichment ratio was at most 0.25.

Turning to TVGP, the enrichment ratio is at most 0.25.

In the case of GKLP, the enrichment ratio turned out to be 0.378.

With HKNE, the enrichment ratio was at most 0.25.

Consider QRYQ, for which the enrichment ratio was at most 0.25.

Consider ARGA, for which the enrichment ratio was at most 0.25.

Turning to QVHN, the enrichment ratio is at most 0.25.

For YRMF, the enrichment ratio is at most 0.25.

YAPT: the enrichment ratio was at most 0.25.

As for LSKT, the enrichment ratio is at most 0.25.

With WCHS, the enrichment ratio is at most 0.25.

For the variant HEIQ, the enrichment ratio is at most 0.25.

Take GEGF: the enrichment ratio is at most 0.25.

For RWGM, the enrichment ratio was at most 0.25.

Turning to ERNT, the enrichment ratio is at most 0.25.

Take INGS: the enrichment ratio is at most 0.25.

On to RVFD, for which the enrichment ratio is at most 0.25.

Turning to EVSH, the enrichment ratio was at most 0.25.

For EIGH, the enrichment ratio is at most 0.25.

Take GMMC: the enrichment ratio was at most 0.25.

Turning to ALAL, the enrichment ratio worked out at 9.66.

As to DAFM, the enrichment ratio is at most 0.25.

For the variant ESND, the enrichment ratio was at most 0.25.

Take VHKS: the enrichment ratio was at most 0.25.

Regarding MCSN, the enrichment ratio was 3.34.

As to QYLK, the enrichment ratio was at most 0.25.

As to SMRW, the enrichment ratio is at most 0.25.

Regarding KFPK, the enrichment ratio was at most 0.25.

As to KAPQ, the enrichment ratio is at most 0.25.

Take TAHT: the enrichment ratio was determined as 9.29.

Regarding NSHC, the enrichment ratio is at most 0.25.

Regarding EDKW, the enrichment ratio was at most 0.25.

In the case of TYIP, the enrichment ratio was at most 0.25.

Turning to NMSD, the enrichment ratio is at most 0.25.

On to IWYR, for which the enrichment ratio was at most 0.25.

With AAQK, the enrichment ratio was at most 0.25.

As to QVGW, the enrichment ratio came out at 2.43.

Consider FKCQ, for which the enrichment ratio was at most 0.25.

In the case of DSFE, the enrichment ratio is at most 0.25.

Turning to LFER, the enrichment ratio was at most 0.25.

With KCPM, the enrichment ratio was at most 0.25.

On to NVAC, for which the enrichment ratio was at most 0.25.

As to GIPH, the enrichment ratio was at most 0.25.

As to SLIF, the enrichment ratio is at most 0.25.

HQTS: the enrichment ratio was at most 0.25.

As for IQFP, the enrichment ratio was at most 0.25.

Regarding IWHK, the enrichment ratio is at most 0.25.

Regarding CLYR, the enrichment ratio is at most 0.25.

For the variant VCWF, the enrichment ratio was at most 0.25.

On to QEFI, for which the enrichment ratio was 7.3.

As for VMCC, the enrichment ratio worked out at 3.

MSFA: the enrichment ratio amounted to 2.31.

With QPER, the enrichment ratio was at most 0.25.
